Measurements published in ChEMBL document CHEMBL4888484, “Replenishing the malaria drug discovery pipeline: Screening and hit evaluation of the MMV Hit Generation Library 1 (HGL1) against asexual blood stage Plasmodium falciparum ,using a nano luciferase reporter read-out” (2022).
In all, about 150,000 compounds went through this assay and about 540 (0.36%) showed an effect of 50% or more. The list shows a part of the results.

Test system: Plasmodium falciparum
Experiment: Primary screen in NF54 nanoGlo assay, in single point, at 2uM, 72h; a lower Z score goes with more inhibition
Format: functional, Erythrocyte
Conditions: timepoint 72 hour

| SMILES | % Inhibition | Z score |
| --- | --- | --- |
| CCN(C(=O)CNC(=O)c1cccc(F)c1)c1ccc2[nH]ccc2c1 | 1% | -0.1 |
| COCCn1cnnc1[C@H](C)Nc1nc(C(C)C)nc2c1cnn2C | -6% | 0.54 |
| Cc1ccccc1C(=O)NC1CCC(Oc2ncccc2C#N)CC1 (stereo unspecified) | 3% | -0.59 |
| CCc1ccnc(-c2noc(C3(OC)CCCCC3)n2)c1 | -2% | 0.28 |
| Cc1cc(-c2nc([C@H]3CCO[C@@H]3C(C)(C)C)no2)ns1 | 19% | -2.35 |
| Cn1cc(NC(=O)NCC2CC2c2ccccc2)cn1 (stereo unspecified) | -3% | 0.46 |
| Cc1cccnc1CN(C)Cc1ccc(-c2ncc[nH]2)s1 | -9% | 1.71 |
| CN(C(=O)CC1CC2CCC1C2)C1(CO)CCOC1 (stereo unspecified) | -12% | 2.44 |
| O=C(NCc1nnc2n1CCC2)c1coc(CN2CCc3ccccc3C2)n1 | -9% | 1.17 |
| O=C1COc2ccc(Cl)cc2N1Cc1nc(-c2ccc(-c3csc(C4CC4)n3)cc2)no1 | -3% | 0.26 |
| CC(C)(C)c1cc(C[C@H]2CNCC[C@H]2CC(=O)N2CCC(Cc3ccccc3)CC2)no1 | 39% | -4.43 |
| Cc1cc(S(=O)(=O)[C@H]2CS(=O)(=O)C[C@@H]2NCC2CCCO2)ccc1F (stereo partly specified) | -17% | 2.22 |
| CC(C)[C@H]1CN(C(CO)CO)C[C@@H]1NC(=O)Cc1ccccc1 | 3% | -0.56 |
| Cc1ncsc1C(=O)NCc1ccnc(-n2ccnc2C)c1 | -11% | 1.07 |
| O=C(Cc1noc2ccccc12)Nc1nnc(-c2ccsc2)o1 | -12% | 1.79 |
| Cc1ccc(N2CCC[C@@]3(CCC(=O)N(Cc4cccnc4)C3)C2)nc1 | -22% | 2.04 |
| c1cc(-c2noc(C3CCC(N4CCOCC4)CC3)n2)ccn1 (stereo unspecified) | 7% | -0.89 |
| CCn1nccc1[C@@H]1CCCN1C(=O)Nc1ccc(C)c(Cl)c1 | 2% | -0.4 |
| O[C@H]1CCN(c2cc(-c3ccccc3)nc3ncnn23)C1 | -10% | 1.69 |
| O=C(C1CCOCC1)N1CC(N2CCCC2)C1 | -9% | 1.18 |
| N#Cc1cccnc1NC1CC(Cl)(Cl)C1 | -1% | 0.14 |
| CC(C)S(=O)(=O)NC(=O)c1cn(C)nc1C1CC1 | 0% | 0.05 |

| SMILES | % Inhibition | Z score |
| --- | --- | --- |
| Cc1noc(C)c1CN1CCC[C@H](N(CCN2CCCC2)C(=O)C2CCC2)C1 | 5% | -0.67 |
| CC(C)n1cc(Br)cc1C(=O)N1CCc2[nH]ncc2C1 | -15% | 1.49 |
| CN(C)c1ccc(C(=O)N[C@H]2CCCN(CCCc3ccccc3)C2)cc1 | -11% | 1.64 |
| Cc1ccsc1C(=O)Nc1ccc2c(c1)OCCO2 | -8% | 0.95 |
| CC(NC(=O)C1Cc2ccccc2O1)C1(N2CCOCC2)CCCC1 (stereo unspecified) | -20% | 1.77 |
| CCN1CCCC[C@@H]1CNCc1[nH]c2ccccc2c1Cl | -12% | 1.16 |
| FC(F)(F)c1cnc(-c2csc(NC3CCCCC3)n2)c(Cl)c1 | 41% | -5.29 |
| COc1cccc(C(=O)N(Cc2ccc(-c3cccc(C(F)(F)F)c3)o2)[C@H]2CCS(=O)(=O)C2)c1 | -13% | 1.64 |
| CN(CCCNC(=O)[C@@H](c1cccc(F)c1)N1CCOCC1)c1ccccc1 | 14% | -1.88 |
| COc1cc(C(=O)N2CCN(c3ccccc3)CC2)cc2occc12 | 32% | -0.6 |
| O=C(Nc1nc(C(=O)Nc2cccc3nsnc23)co1)c1ccsc1 | 7% | -0.99 |
| O=C(Cn1nnc(C2CC2)n1)C1CCOCC1 | -7% | 1.03 |
| COc1ccc(OCc2nc(C(=O)N[C@H]3CC[C@H](O)CC3)co2)cc1 | -11% | 1.82 |
| Cc1sc(C(=O)N2CCOCC2)c(NC(=O)c2ccccc2)c1C | -34% | 4.02 |
| COC[C@@H]1CN(S(=O)(=O)Cc2ccccc2)C[C@H]1C(N)=O | 3% | -0.39 |
| O=C(c1ccccc1F)N1CCC[C@H](OCc2ccc(F)c(F)c2)C1 | -7% | 1.05 |
| O=C(O)c1c(S(=O)(=O)N[C@H]2C[C@@H]3CC[C@H]2C3)sc2c1CCNC2 | -8% | 1.78 |
| O=C(CC1(CC(=O)NC2CC2)CCCCC1)Nc1nccs1 | -14% | 2.17 |
| Cc1nnsc1CN1CC[C@H](NC(=O)c2ccccc2)[C@@H](O)C1 | -6% | 1.08 |
| CNC1CCN(C(C)CCc2ccc3c(c2)OCO3)C1 (stereo unspecified) | -5% | 0.74 |
| Cn1ncnc1CCNC(=O)c1ccc(-c2ccc3c(c2)OCC3)cc1 | -16% | 2.76 |
